These are yes or no findings as the source states them, for the method shown. For some of these results: Binding seen in cells or lysates may run through a third protein. Some entries that bind do so weakly or less than the wild type.
What was measured:
[1] = biological target: hGPR83_del17-60, N-terminal deletion variant of human GPR83, Flag-tagged (sandwich ELISA construct) (human) (UniProt Q9NYM4); test: ELISA; sandwich ELISA: HA- and Flag-tagged constructs co-transfected in COS-7 cells, 48 h; lysates incubated 2 h in anti-Flag antibody-coated 96-well plates, HA epitope detected with biotin-labeled anti-HA antibody and peroxidase-streptavidin; % absorption (492 nm/620 nm) relative to the positive control
[2] = biological target: hGPR83_del17-60, N-terminal deletion variant of human GPR83, YFP fragment fusion (YFP-BiFC construct) (human) (UniProt Q9NYM4); test: split reporter; YFP-BiFC: -YFP1 and -YFP2 constructs co-transfected in HEK293 cells, read 48 h after transfection; YFP-fluorescent cells counted by flow cytometry (FACS CantoII), expressed as % fluorescent cells to the positive control
[3] = biological target: human G-protein coupled receptor 83, wild type, Flag-tagged (sandwich ELISA construct) (human) (UniProt Q9NYM4); test: ELISA; sandwich ELISA: HA- and Flag-tagged constructs co-transfected in COS-7 cells, 48 h; lysates incubated 2 h in anti-Flag antibody-coated 96-well plates, HA epitope detected with biotin-labeled anti-HA antibody and peroxidase-streptavidin; % absorption (492 nm/620 nm) relative to the positive control
[4] = biological target: human G-protein coupled receptor 83, wild type, YFP fragment fusion (YFP-BiFC construct) (human) (UniProt Q9NYM4); test: split reporter; YFP-BiFC: -YFP1 and -YFP2 constructs co-transfected in HEK293 cells, read 48 h after transfection; YFP-fluorescent cells counted by flow cytometry (FACS CantoII), expressed as % fluorescent cells to the positive control
[5] = biological target: human ghrelin receptor, YFP fragment fusion (YFP-BiFC construct) (human) (UniProt Q92847); test: as above

Chains of the proteins cited; added tags and fusions are not shown. Lines headed by an entry give the natural chain unless they say otherwise; changes in a name come on top.
UniProt Q9NYM4: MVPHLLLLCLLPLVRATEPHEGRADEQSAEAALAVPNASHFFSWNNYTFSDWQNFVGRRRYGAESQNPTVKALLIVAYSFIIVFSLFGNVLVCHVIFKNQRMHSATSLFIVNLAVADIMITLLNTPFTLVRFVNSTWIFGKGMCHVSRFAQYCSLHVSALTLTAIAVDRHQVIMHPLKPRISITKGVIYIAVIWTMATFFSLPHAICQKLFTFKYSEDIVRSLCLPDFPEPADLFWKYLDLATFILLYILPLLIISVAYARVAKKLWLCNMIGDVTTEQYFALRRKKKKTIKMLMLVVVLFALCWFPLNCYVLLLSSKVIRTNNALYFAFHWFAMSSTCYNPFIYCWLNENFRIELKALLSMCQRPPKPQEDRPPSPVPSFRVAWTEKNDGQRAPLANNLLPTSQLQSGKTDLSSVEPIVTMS
UniProt Q92847: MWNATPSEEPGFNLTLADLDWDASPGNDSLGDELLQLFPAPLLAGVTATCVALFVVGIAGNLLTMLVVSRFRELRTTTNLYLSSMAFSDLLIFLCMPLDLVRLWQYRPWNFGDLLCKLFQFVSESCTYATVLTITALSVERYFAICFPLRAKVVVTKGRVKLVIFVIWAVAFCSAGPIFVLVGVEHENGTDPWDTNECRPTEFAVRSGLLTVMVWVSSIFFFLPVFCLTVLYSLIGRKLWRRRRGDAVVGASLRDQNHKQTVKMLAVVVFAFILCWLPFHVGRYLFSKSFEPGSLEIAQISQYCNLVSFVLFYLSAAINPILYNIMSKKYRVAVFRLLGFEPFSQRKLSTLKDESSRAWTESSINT
UniProt P41968: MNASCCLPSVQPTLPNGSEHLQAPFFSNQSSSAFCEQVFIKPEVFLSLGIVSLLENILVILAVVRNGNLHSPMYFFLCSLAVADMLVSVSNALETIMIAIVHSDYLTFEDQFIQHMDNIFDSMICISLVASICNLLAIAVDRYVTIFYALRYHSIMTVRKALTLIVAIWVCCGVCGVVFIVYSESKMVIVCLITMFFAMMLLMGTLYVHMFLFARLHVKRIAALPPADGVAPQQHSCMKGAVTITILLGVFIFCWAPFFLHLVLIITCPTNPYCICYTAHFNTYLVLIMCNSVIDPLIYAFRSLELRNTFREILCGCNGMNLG
UniProt P32245: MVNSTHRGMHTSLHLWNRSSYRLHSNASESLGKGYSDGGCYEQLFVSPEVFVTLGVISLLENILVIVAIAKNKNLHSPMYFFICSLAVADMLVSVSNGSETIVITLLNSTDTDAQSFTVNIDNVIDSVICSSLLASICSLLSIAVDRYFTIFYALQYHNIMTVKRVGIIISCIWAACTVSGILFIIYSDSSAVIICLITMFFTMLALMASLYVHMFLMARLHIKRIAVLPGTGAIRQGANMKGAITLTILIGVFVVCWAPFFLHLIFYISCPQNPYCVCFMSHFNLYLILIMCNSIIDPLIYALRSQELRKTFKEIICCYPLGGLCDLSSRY
UniProt P08483: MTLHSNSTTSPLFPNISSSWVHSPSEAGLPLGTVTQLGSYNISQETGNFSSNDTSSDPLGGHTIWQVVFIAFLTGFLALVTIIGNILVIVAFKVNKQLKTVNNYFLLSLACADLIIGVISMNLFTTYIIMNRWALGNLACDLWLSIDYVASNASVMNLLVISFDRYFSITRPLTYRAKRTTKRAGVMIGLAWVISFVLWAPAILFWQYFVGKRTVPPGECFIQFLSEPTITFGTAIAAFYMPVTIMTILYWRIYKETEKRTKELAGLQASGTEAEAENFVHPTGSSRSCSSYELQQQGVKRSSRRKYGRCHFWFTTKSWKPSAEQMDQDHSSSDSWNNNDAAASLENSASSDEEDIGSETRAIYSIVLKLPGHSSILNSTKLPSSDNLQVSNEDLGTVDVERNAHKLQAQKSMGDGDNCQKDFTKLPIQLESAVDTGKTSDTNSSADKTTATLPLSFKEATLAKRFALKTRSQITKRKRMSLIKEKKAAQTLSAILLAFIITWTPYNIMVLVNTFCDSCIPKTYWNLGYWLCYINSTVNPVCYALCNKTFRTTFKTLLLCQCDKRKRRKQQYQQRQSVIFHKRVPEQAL

| Substance | binding [1] | binding [2] | binding [3] | binding [4] | further results |
| --- | --- | --- | --- | --- | --- |
| hGPR83_del17-60, N-terminal deletion variant of human GPR83, Flag-tagged (sandwich ELISA construct) (from UniProt Q9NYM4 17-423) (receptor) | binds | – | – | – | – |
| hGPR83_del17-60, N-terminal deletion variant of human GPR83, YFP fragment fusion (YFP-BiFC construct) (from UniProt Q9NYM4 17-423) (receptor) | – | binds | – | – | – |
| human G-protein coupled receptor 83, wild type, Flag-tagged (sandwich ELISA construct) (from UniProt Q9NYM4 17-423) | – | – | binds | – | – |
| human G-protein coupled receptor 83, wild type, YFP fragment fusion (YFP-BiFC construct) (from UniProt Q9NYM4 17-423) | – | – | – | binds | – |
| human ghrelin receptor, NHA-tagged (sandwich ELISA construct) (from UniProt Q92847 1-366) | binds | – | binds | – | – |
| human ghrelin receptor, YFP fragment fusion (YFP-BiFC construct) (from UniProt Q92847 1-366) | – | binds | – | binds | – |
| human melanocortin-3 receptor, YFP fragment fusion (YFP-BiFC construct) (from UniProt P41968 1-323) | – | binds | – | binds | binding [5]: binds |
| human melanocortin-4 receptor, NHA-tagged (sandwich ELISA construct) (from UniProt P32245 1-332) | binds | – | binds | – | – |
| human melanocortin-4 receptor, YFP fragment fusion (YFP-BiFC construct) (from UniProt P32245 1-332) | – | binds | – | binds | – |
| rat cholinergic receptor, muscarinic 3, NHA-tagged (sandwich ELISA construct) (from UniProt P08483 1-589) | no binding | – | no binding | – | – |
| rat cholinergic receptor, muscarinic 3, YFP fragment fusion (YFP-BiFC construct) (from UniProt P08483 1-589) | – | no binding | – | no binding | – |

— PMC5148169
